Assay [1] addresses T1, IL-4Rα (receptor protein / antigen) (UniProt P24394 26-232, limits assumed).
T1 construct: also called IL-4 receptor subunit α
Kind of assay: competition ELISA: IL-4Rα coated, biotin-IL-4 at EC80 mixed with antibody dilutions, OD450. On the procedure: (§1) (3) A biotin-conjugated ligand protein (IL-4 or IL-5) was diluted to 2 times the EC80 concentration, and the antibody was diluted to 2 times the initial concentration, and 5-fold gradient dilution was carried out. The ligand protein, and the diluted antibody (dupilumab, 4E9V10-2B3V2, 4E9-V0 or 2B3 (SEQ ID NO. 25)) and hIgG respectively, were transferred at 1:1 into a new dispensing plate and mixed well.
(§2) (7) A stopping solution was added, and the values of samples in different wells were immediately read at the wavelength of 450 nm with a microplate reader and recorded as OD450. EC50 was calculated by plotting. 4E9-V0, non-humanized anti-[…] single domain antibody 2B3, dupilumab, reslizumab, and hIgG were used as controls, and the results are shown in Tables 6 and 7 and FIGS. 5 and 6, respectively.

In assay [2] the target is T1, IL-4Rα (receptor protein / antigen). Kind of assay: BLI (Octet 96), method of Example 4, antibody on sensor, antigen in solution. The procedure: (§3) Assay steps: Octet 96 and Data Acquisition software in the supporting computer were run. The bottom and sides of an acquisition probe were cleaned using a lens tissue with an appropriate amount of 75% ethanol, and the instrument was preheated for 15 min or more. Sensor pre-wetting: before the assay, the Sensor was soaked in the SD buffer for 10 min or more for later use. Then, the machine procedure was set according to: baseline→antibody→baseline→antigen binding→antigen dissociation→sensor regeneration for assay operation.
(§4) Affinity kinetic assay for the humanized bispecific antibody was carried out by the assay method shown in example 4, and the assay results are shown in Table 11.
(In general: BLI is a label-free optical method that tracks binding on a fibre tip over time.)

In assay [3] the target is T2, IL-5 (human, UniProt P05113 20-134).
T2 construct: unlabelled in the proliferation assay and as BLI antigen. 'Human' is printed only for the proliferation assay; also called human IL-5 protein; human recombinant IL-5 protein
The description is as above. The procedure:
as §3, §4

The target in assay [4] is T1, IL-4Rα (receptor protein / antigen). Nature of the assay: BLI (Octet 96), method of Example 4.
Assay [5] deals with T2, IL-5. Nature of the assay: BLI (Octet 96), method of Example 4.
T2 sequence (P05113 20-134 limits assumed): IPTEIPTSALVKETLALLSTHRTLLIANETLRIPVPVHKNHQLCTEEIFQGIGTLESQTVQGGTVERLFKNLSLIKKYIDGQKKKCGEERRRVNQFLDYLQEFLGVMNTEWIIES
Assay [6] addresses T3, IL-4Rα (on TF-1 cells) (UniProt P24394 26-825, limits assumed). Kind of assay: cell-based or functional assay.
For assay [7], the target named is T2, IL-5. Kind of assay: cell-based or functional assay.
Assay [8] addresses T1, IL-4Rα (receptor protein / antigen). Kind of assay: BLI (Octet 96), method of Example 4. On the procedure: as §3, §4
The source holds these as a separate data set.

The target of assay [9] is T2, IL-5. Kind of assay: BLI (Octet 96), method of Example 4. On the procedure: as §3, §4
The source holds these as a separate data set.

In assay [10] the target is T2, IL-5. Kind of assay: competition ELISA: IL-5R coated, biotin-IL-5 at EC80 mixed with antibody dilutions, OD450. The procedure: as §1, §2
(In general: An ELISA detects its analyte on a solid surface through an enzyme-linked reagent.)

For assay [11], the target named is T3, IL-4Rα (on TF-1 cells). Kind of assay: cell-based or functional assay. The source holds these as a separate data set.

B1: anti-IL-4Rα/IL-5 protein bispecific single domain antibody 4E9V10-2B3V2 (bispecific antibody, human IgG4)
chain: QVQLVESGGGLVQPGGSLRLSCAASGDFYCMAWFRQAPGKEREAVAAIRSGGRSTYYADSVKGRFTISRDNSKNTLYLQMNSLKAEDTAVYYCAVGVDGNCRNYWGQGTLVTVSS[gap - human IgG4 Fc]ESKYGPPCPSCPQVQLVESGGGSVQAGGSLRLSCAASGNTFSFSTYCMGWFRQSPGKEREGSLATIYDASTAYAGSVKGRFTISRDNSKNILYLQMNNLRAEDTAVYYCAAARYCMFWSHPSYWGQGTQVTVSS
notes: Single polypeptide VHH-Fc-VHH; also called IL-4Rα/IL-5 bispecific antibody; humanized bispecific antibody
The EC50 is the concentration giving half of the maximal effect. Higher therefore signals lower potency in that assay. A word on the Kd: it is the constant that tells how readily two partners part at equilibrium. Low values mean tighter binding, high ones weaker binding. In general, koff refers to the first-order rate constant of dissociation. Usually kon stands for a measure of how fast the partners come together. For the molecule B1, the half-maximal effective concentration (EC50) in [1] turned out to be 3650 pM; with IL-5 [10], 3610 pM. Further, the Kd is 233 pM in [2], 663 pM in the assay with IL-5 [3], less than 1000 pM in assay [4] and less than 1000 pM in the assay with IL-5 [5]. For the same molecule, in the assay with IL-4Rα (on TF-1 cells) [6], the “EC50 of neutralizing IL-4-induced TF-1 cell proliferation” value amounted to 262 pM. For the same molecule, the “EC50 of neutralizing IL-5-induced TF-1 cell proliferation” value with IL-5 [7] was 175 pM. The koff was determined as 4.6e-05 s⁻¹ in assay [8] and 0.000141 s⁻¹ with IL-5 [9]. In addition, the results for the kon (in [8]; in the assay with IL-5 [9]) were 198000 M⁻¹ s⁻¹ and 213000 M⁻¹ s⁻¹, respectively. Moreover, in the assay with IL-4Rα (on TF-1 cells) [11], the “EC50 of neutralizing IL-13-induced TF-1 cell proliferation” value amounted to 215 pM.

Values taken from US20230279123A1 (REGENECORE BIOTECH, published 2023).
